{
  "source": "the supplement of paper PMC11417369",
  "note": "The other results are listed elsewhere or left out.",
  "data": [
    {"test_system": "PfHDP1 homeodomain (GST-tagged)", "experiment": "gcPBM binding intensity (ln(normalized median fluorescence intensity)); higher = stronger DNA binding", "procedure,_shortened": "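GST-fused DNA-binding domains of P. falciparum, expressed in E. coli, were applied at about 25 μg on average for 1 h to an Agilent 4 × 180k array of primer-extended double-stranded 36-bp intergenic genomic probes and negative controls. Binding intensity is the highest Masliner-normalised natural-log median intensity across replicate spots of either probe orientation, measured with Alexa488 anti-GST antibody and a 488 nm scan.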", "values": [
      {"sequence": "AAATCATTCCTTTATTCACACAATATCTGTATTTAT [CACACA_site4407]", "gcPBM binding intensity (ln)": 6.59},
      {"sequence": "TCATAAATGAAACACACACACACATCTGGATACCCC [CACACA_site3332]", "gcPBM binding intensity (ln)": 7.04},
      {"sequence": "ATTATATATATAAAGTGTACAAAAAAAAAAAAAAAA [XGTACX_site3134]", "gcPBM binding intensity (ln)": 6.61},
      {"sequence": "TATAATAAATCATATGCATGTTGAAAAAAAAAAAAA [TGCATGCA_site923]", "gcPBM binding intensity (ln)": 6.46},
      {"sequence": "ATTTGAGAGTTAACAAAATATTTGGCCATCTTTTAT [XGTACX_negctrl_site447]", "gcPBM binding intensity (ln)": 6.05},
      {"sequence": "AATGTCCTTATTTGCACACACACATATAAGAAATTT [CACACA_site3186]", "gcPBM binding intensity (ln)": 10.6},
      {"sequence": "AACTCATAGCGGTGTGCACACAAAAAATTAAAAAAA [CACACA_site3033]", "gcPBM binding intensity (ln)": 11},
      {"sequence": "ATTGTCCTAAATACTACAAAGTAGATCTTTAATATT [CACACA_negctrl_site1795]", "gcPBM binding intensity (ln)": 6.25},
      {"sequence": "GAGATGACATTACACAGTACCCAGGAAATCTACGGA [XGTACX_site4931]", "gcPBM binding intensity (ln)": 6.06},
      {"sequence": "TATATATTGTTATATACACACATGTATATAAAAAAT [CACACA_site3221]", "gcPBM binding intensity (ln)": 6.48},
      {"sequence": "CAAAAAAGGTCCCGGAGTACATATATAATTTTTTTT [XGTACX_site458]", "gcPBM binding intensity (ln)": 6.79},
      {"sequence": "TTATAATTAAGATATAATCAATAATAACAAATGAAC [CACACA_negctrl_site1690]", "gcPBM binding intensity (ln)": 6.91},
      {"sequence": "TTTCTTTTTCTAGTTATTTTTACTTATCCCTAATTT [TGCATGCA_negctrl_site460]", "gcPBM binding intensity (ln)": 6.66},
      {"sequence": "TTCTTTGCTTCTGTTTCACACATTTTTAAAATAAGC [CACACA_site4741]", "gcPBM binding intensity (ln)": 7.58},
      {"sequence": "TTAAGCCGCAATATGGGTACATAGGAAGAAGGGGAA [XGTACX_site8397]", "gcPBM binding intensity (ln)": 6.14},
      {"sequence": "ATATATAAAAATATTTGTACATATAGTTATATTTAT [XGTACX_site6114]", "gcPBM binding intensity (ln)": 6.35},
      {"sequence": "TTAAAGGGAATGTATACACACGTTTCTCTATGTTAT [CACACA_site4793]", "gcPBM binding intensity (ln)": 6.33},
      {"sequence": "TAATTCCATAAGTAAACACACAAATGCCAAAATTTT [CACACA_site3205]", "gcPBM binding intensity (ln)": 6.46},
      {"sequence": "GTGCGTGCGTGTACTTAACACACATAATATGTATTT [CACACA_site8336]", "gcPBM binding intensity (ln)": 6.89},
      {"sequence": "TCCATATGCAAACTGGTGCACAAGTAGCTTTTATAT", "gcPBM binding intensity (ln)": 10.8},
      {"sequence": "ACATATATGGAGCTTATACACACTTTTATATTTTAA [CACACA_site3854]", "gcPBM binding intensity (ln)": 6.75},
      {"sequence": "TTTTAAATATGCCATACACACTACTCTATAATAAAT [CACACA_site6987]", "gcPBM binding intensity (ln)": 6.56},
      {"sequence": "TTATCATATAATTATTGTACTAAAAAAAAAGCGAGT [XGTACX_site3086]", "gcPBM binding intensity (ln)": 6.94},
      {"sequence": "TTATAATAAATATATAAAAAAAAAAAAAAAAAAAAA [CACACA_negctrl_site1639]", "gcPBM binding intensity (ln)": 6.29},
      {"sequence": "ATATATTATGGGTGTGCACACAATATTTATATGTTC [CACACA_site2270]", "gcPBM binding intensity (ln)": 10.9},
      {"sequence": "TTTTCTTATAAATGAAGTACAAAAAAAAAATATATA [XGTACX_site1352]", "gcPBM binding intensity (ln)": 6.55},
      {"sequence": "TGATAGCACCTTATATGTACATATAATATATTATTA [XGTACX_site837]", "gcPBM binding intensity (ln)": 6.97},
      {"sequence": "TTATGTGTATAGGTTTGTACATAAAATGATGTATAG [XGTACX_site1401]", "gcPBM binding intensity (ln)": 6.52},
      {"sequence": "TAGTCATATATATATGTACACACATATATATATTTA [CACACA_site8413]", "gcPBM binding intensity (ln)": 6.32},
      {"sequence": "TCATGGAATATTTAAAGTACAAAAAGTGTTCTTTAC [XGTACX_site715]", "gcPBM binding intensity (ln)": 5.83},
      {"sequence": "TATATATATATGTGTACACATGTCGCATTTTTTTAT [CACACA_site4648]", "gcPBM binding intensity (ln)": 9.06},
      {"sequence": "GATATTATAAAATAAAAATAAATCATTTCTATTCAT [CACACA_negctrl_site334]", "gcPBM binding intensity (ln)": 5.78},
      {"sequence": "GTGTCTTTTATTAAATGTACATATTCATAGATAAAA [XGTACX_site8578]", "gcPBM binding intensity (ln)": 6.56},
      {"sequence": "AATTGAGAAGTGTGTTGTACATAATGGCACATACCT [XGTACX_site1370]", "gcPBM binding intensity (ln)": 6.5},
      {"sequence": "ACGTAAACATGTAGAAGGCATTACACAATGGTATAC [TGCATGCA_negctrl_site512]", "gcPBM binding intensity (ln)": 6.47},
      {"sequence": "ACCTTAAAAATAACTGCACACAAAAATAAATACCTT [CACACA_site8902]", "gcPBM binding intensity (ln)": 8.72},
      {"sequence": "TAGAATGAAAAAAAAGCATGCGGGCAAAAATTTTTA [TGCATGCA_site926]", "gcPBM binding intensity (ln)": 6.96},
      {"sequence": "TTATTTTTTTGGAATTCACACACAAAAAAAAAAATA [CACACA_site8650]", "gcPBM binding intensity (ln)": 6.33},
      {"sequence": "ATATATATATATATATGTACATATATATATTATATT [XGTACX_site6303]", "gcPBM binding intensity (ln)": 9.38},
      {"sequence": "TTATGGTGCATGAAATCACACATTGATATATATGCT [CACACA_site5352]", "gcPBM binding intensity (ln)": 8.81},
      {"sequence": "AAGGTATAATATATTTGTACATATACATTTTTGAAT [XGTACX_site6493]", "gcPBM binding intensity (ln)": 6.46},
      {"sequence": "GATTTTAATGGGTGTACACATTTATTTATATAAAGT [CACACA_site5317]", "gcPBM binding intensity (ln)": 6.66},
      {"sequence": "TGAAAAATGTAATGCTCACACATATATATATATATA [CACACA_site5213]", "gcPBM binding intensity (ln)": 9.47},
      {"sequence": "ATGTGTATATATATGTGTACATAATTTGTGTTATTC [XGTACX_site2509]", "gcPBM binding intensity (ln)": 6.94},
      {"sequence": "TATCCCCTTGTCCATATTAATTGTGACATCATATAT [XGTACX_negctrl_site9]", "gcPBM binding intensity (ln)": 7.25},
      {"sequence": "TATTTTTTATTTTAAATCCTCTGATATTTAATTTGT [TGCATGCA_negctrl_site84]", "gcPBM binding intensity (ln)": 6.21},
      {"sequence": "ATTTATGTTAATAAGTGTACAATAAATTTTTTTTAT [XGTACX_site7658]", "gcPBM binding intensity (ln)": 6.14},
      {"sequence": "AACATATATAAATACACACACATATATATATGAAAT [CACACA_site4312]", "gcPBM binding intensity (ln)": 6.77},
      {"sequence": "TATTAATTTAAATGGGTGCAAAACCTATATAAATAT", "gcPBM binding intensity (ln)": 9.35},
      {"sequence": "AAAATGTCCCGTAGAAAATAAATTTATTACGCAATA [CACACA_negctrl_site1564]", "gcPBM binding intensity (ln)": 6.5},
      {"sequence": "TAGGTGCCTTTTTTCACACACATGTCAACTAAATAT [CACACA_site2656]", "gcPBM binding intensity (ln)": 6.9},
      {"sequence": "ATATTTAGGAAAAATAGTACACATTTAAATAATAAT [XGTACX_site7989]", "gcPBM binding intensity (ln)": 6.67},
      {"sequence": "CTTTAAATTAATAAAAGTACATTATTTATATATTTT [XGTACX_site4808]", "gcPBM binding intensity (ln)": 6.17},
      {"sequence": "AAATATATATATATATATATAAATATATACATATAT [TGCATGCA_negctrl_site517]", "gcPBM binding intensity (ln)": 6.5},
      {"sequence": "ATATTTTATTTTAATACACACAAGTTATATAACCAC [CACACA_site6508]", "gcPBM binding intensity (ln)": 6.88},
      {"sequence": "TACATATATATATATGTACACACATTAATAAAAAAA [CACACA_site9058]", "gcPBM binding intensity (ln)": 6.75}
    ]}
  ]
}
